Measured values: patent US20240376128A1, “N-CYCLOPROPYLPYRIDO [4, 3-D] PYRIMIDIN-4-AMINE DERIVATIVES AND USES THEREOF” (Jacobio Pharmaceuticals Co., Ltd., priority 2021, published 2024)
Where two headings read alike, the source gives them in different places.

What was measured:
[1] = Mouse pharmacokinetic study; assay type: in vivo; conditions: female, Balb/c mouse, single dose 10 mg/kg, po, plasma; for AUC(0-t): read-out: AUC0-8h; for Cmax: read-out: Cmax
Procedure: The purpose of this study was to evaluate the pharmacokinetic properties of compounds in Balb/c mouse (♀) following single dose administration. Six mice were needed for each compound and the six mice were divided into two groups (n=3/group), group A and group B. Mice in group A were treated with a single 3 mg/kg dose of compound (iv). Mice in group B were treated with a single 10 mg/kg dose of compound (po). For each mouse in group A, blood samples were collected at the time point of 0.083, 0.5, 1, 2, 4 and 8 h post-dose. For each mouse in group B, blood samples were collected at the time point of 0.5, 1, 2, 4, 6 and 8 h post-dose. Blood samples were placed on ice until centrifugation to obtain plasma samples. The plasma samples were stored at −80° C. until analysis. The concentration of compound in plasma samples was determined using a LC-MS/MS method.
For the prodrug, only the oral PK study was performed and the dosage was adjusted to be equal to 10 mg/kg of parent drug. The concentrations of both prodrug and parent drug in plasma were determined using a LC-MS/MS method.

[2] = tested on: K-Ras mutant and K-Ras WT cell lines indicated in Table 20; experiment: 2D cell growth inhibition assay (CellTiter-Glo, 6 days); assay type: cell-based
Procedure: Each of cells in culture medium was plated in TC-treated 96-well plates at a density indicated in Table 20 and incubated in a cell incubator overnight.

[3] = 144 h, AGS (K-Ras G12D), absolute IC50, read-out: Cell Growth Inhibition, IC50, AGS
[4] = Homo sapiens, ASPC1, 144 h, AsPC-1 (K-Ras G12D), absolute IC50, read-out: Cell Growth Inhibition, IC50, AsPC-1
[5] = Homo sapiens, SW-620, 144 h, SW620 (K-Ras G12V), absolute IC50, read-out: Cell Growth Inhibition, IC50, SW620

SMILES	AUC(0-t) [1] [ng·h/mL]	Cmax [1] [ng/mL]	IC50 [2, 3] [nM]	IC50 [2, 4] [nM]	IC50 [2, 5] [nM]
CCc1c(F)ccc2cc(O)cc(-c3ncc4c(N(C)[C@@H]5C[C@H]5F)nc(OC[C@@]56CCCN5C[C@H](F)C6)nc4c3F)c12.O=C(O)C(F)(F)F (mixture of isomers) [Compound 15, 5-ethyl-6-fluoro-4-(8-fluoro-4-((trans-2-fluorocyclopropyl)(methyl)amino)-2-(((2R,7aS)-2-fluorotetrahydro-1H-pyrrolizin-7a(5H)-yl)methoxy)pyrido[4,3-d]pyrimidin-7-yl)naphthalen-2-ol 2,2,2-trifluoroacetic acid]	592	190	24.1	122	12.9
C#Cc1c(F)ccc2cc(O)cc(-c3ncc4c(NC5CC5)nc(OC[C@@]56CCCN5C[C@H](F)C6)nc4c3F)c12 [Compound 18, 4-(4-(cyclopropylamino)-8-fluoro-2-(((2R,7aS)-2-fluorotetrahydro-1H-pyrrolizin-7a(5H)-yl)methoxy)pyrido[4,3-d]pyrimidin-7-yl)-5-ethynyl-6-fluoronaphthalen-2-ol formic acid]	–	–	–	–	135
[2H]C([2H])([2H])N(c1nc(OC([2H])([2H])[C@@]23CCC([2H])([2H])N2C[C@]([2H])(F)C3)nc2c(F)c(-c3cc(O)cc4ccc(F)c(C#C)c34)ncc12)C1CC1 [Compound 26, 4-(4-(cyclopropyl(methyl-d3)amino)-8-fluoro-2-(((2R,7aS)-2-fluorotetrahydro-1H-pyrrolizin-7a(5H)-yl-2,5,5-d3)methoxy-d2)pyrido[4,3-d]pyrimidin-7-yl)-5-ethynyl-6-fluoronaphthalen-2-ol]	2590	813	118	776	20.5
O=C(O)C(F)(F)F.[2H]C([2H])([2H])N(c1nc(OC[C@@]23CCCN2C[C@H](F)C3)nc2c(F)c(-c3cc(O)cc4ccc(F)c(C#C)c34)ncc12)[C@H]1C[C@@H]1F [Compound 7, 5-ethynyl-6-fluoro-4-(8-fluoro-4-(((1S,2S)-2-fluorocyclopropyl)(methyl-d3)amino)-2-(((2R,7aS)-2-fluorotetrahydro-1H-pyrrolizin-7a(5H)-yl)methoxy)pyrido[4,3-d]pyrimidin-7-yl)naphthalen-2-ol 2,2,2-trifluoroacetic acid]	1380	433	4.69	41.9	2.98
C#Cc1c(F)ccc2cc(O)cc(-c3ncc4c(N(C)[C@@H]5C[C@@H]5F)nc(OC[C@@]56CCCN5C[C@H](F)C6)nc4c3F)c12 [Compound 13, 5-ethynyl-6-fluoro-4-(8-fluoro-4-(((1R,2S)-2-fluorocyclopropyl)(methyl)amino)-2-(((2R,7aS)-2-fluorotetrahydro-1H-pyrrolizin-7a(5H)-yl)methoxy)pyrido[4,3-d]pyrimidin-7-yl)naphthalen-2-ol]	–	–	–	–	99.9
C#Cc1c(F)ccc2cc(O)cc(-c3nc(OC)c4c(N(C)C5CC5)nc(OC[C@@]56CCCN5C[C@H](F)C6)nc4c3F)c12 [Compound 2, 4-(4-(cyclopropyl(methyl)amino)-8-fluoro-2-(((2R,7aS)-2-fluorotetrahydro-1H-pyrrolizin-7a(5H)-yl)methoxy)-5-methoxypyrido[4,3-d]pyrimidin-7-yl)-5-ethynyl-6-fluoronaphthalen-2-ol]	151	73.6	50.9	949	62.5
